Source: PMC9911399, “Two distinct binding modes provide the RNA-binding protein RbFox with extraordinary sequence specificity”
Numbering of substitutions follows the chain as printed; changes in the protein carry UniProt numbers. Some of the results follow.

B1: GCGCCGC (DNA:RNA)
RNA: GGGAGACCGGAAUUCAGAUUGUCCGCGCCGCUUAAAUCCCGUCGUAGCCACCA
DNA 1: CAATCTGAATTCCGGTCTCCC
DNA 2: TGGTGGCTACGACGGGATT
B2: CCAAAGC (DNA:RNA)
RNA: B1 RNA with G25C, G27A, C28A, C29A
DNA 1: CAATCTGAATTCCGGTCTCCC
DNA 2: TGGTGGCTACGACGGGATT
B3: GAUACUG (DNA:RNA)
RNA: B1 RNA with C26A, G27U, C28A, G30U, C31G
DNA 1: CAATCTGAATTCCGGTCTCCC
DNA 2: TGGTGGCTACGACGGGATT
B4: CUCAGCA (DNA:RNA)
RNA: GGGAGACCGGAAUUCAGAUUGUCCCUCAGCAUUAAAUCCCGUCGUAGCCACCA
DNA 1: CAATCTGAATTCCGGTCTCCC
DNA 2: TGGTGGCTACGACGGGATT
B5: AACCUAG (DNA:RNA)
RNA: B4 RNA with C25A, U26A, A28C, G29U, C30A, A31G
DNA 1: CAATCTGAATTCCGGTCTCCC
DNA 2: TGGTGGCTACGACGGGATT
B6: UGGUUUA (DNA:RNA)
RNA: B4 RNA with C25U, U26G, C27G, A28U, G29U, C30U
DNA 1: CAATCTGAATTCCGGTCTCCC
DNA 2: TGGTGGCTACGACGGGATT
B7: CGGUCCU (DNA:RNA)
RNA: B4 RNA with U26G, C27G, A28U, G29C, A31U
DNA 1: CAATCTGAATTCCGGTCTCCC
DNA 2: TGGTGGCTACGACGGGATT
B8: UCUGGCU (DNA:RNA)
RNA: B4 RNA with C25U, U26C, C27U, A28G, A31U
DNA 1: CAATCTGAATTCCGGTCTCCC
DNA 2: TGGTGGCTACGACGGGATT
B9: GUGUACC (DNA:RNA)
RNA: B1 RNA with C26U, C28U, C29A, G30C
DNA 1: CAATCTGAATTCCGGTCTCCC
DNA 2: TGGTGGCTACGACGGGATT
B10: CUAGCGA (DNA:RNA)
RNA: B4 RNA with C27A, A28G, G29C, C30G
DNA 1: CAATCTGAATTCCGGTCTCCC
DNA 2: TGGTGGCTACGACGGGATT
B11: AGUGUAG (DNA:RNA)
RNA: GGGAGACCGGAAUUCAGAUUGUCCAGUGUAGUUAAAUCCCGUCGUAGCCACCA
DNA 1: CAATCTGAATTCCGGTCTCCC
DNA 2: TGGTGGCTACGACGGGATT
B12: UUUCUAA (DNA:RNA)
RNA: B11 RNA with A25U, G26U, G28C, G31A
DNA 1: CAATCTGAATTCCGGTCTCCC
DNA 2: TGGTGGCTACGACGGGATT
B13: GCACAAG (DNA:RNA)
RNA: B1 RNA with G27A, C29A, G30A, C31G
DNA 1: CAATCTGAATTCCGGTCTCCC
DNA 2: TGGTGGCTACGACGGGATT
B14: AAGUGAU (DNA:RNA)
RNA: B11 RNA with G26A, U27G, G28U, U29G, G31U
DNA 1: CAATCTGAATTCCGGTCTCCC
DNA 2: TGGTGGCTACGACGGGATT
B15: UACCAGG (DNA:RNA)
RNA: B1 RNA with G25U, C26A, G27C, C29A, C31G
DNA 1: CAATCTGAATTCCGGTCTCCC
DNA 2: TGGTGGCTACGACGGGATT
B16: GCGCCCG (DNA:RNA)
RNA: B1 RNA with G30C, C31G
DNA 1: CAATCTGAATTCCGGTCTCCC
DNA 2: TGGTGGCTACGACGGGATT
B17: GCAAUGU (DNA:RNA)
RNA: B1 RNA with G27A, C28A, C29U, C31U
DNA 1: CAATCTGAATTCCGGTCTCCC
DNA 2: TGGTGGCTACGACGGGATT
B18: GACUCAA (DNA:RNA)
RNA: B4 RNA with C25G, U26A, A28U, G29C, C30A
DNA 1: CAATCTGAATTCCGGTCTCCC
DNA 2: TGGTGGCTACGACGGGATT
B19: CGUUCUU (DNA:RNA)
RNA: B11 RNA with A25C, G28U, U29C, A30U, G31U
DNA 1: CAATCTGAATTCCGGTCTCCC
DNA 2: TGGTGGCTACGACGGGATT
B20: GUAAUUC (DNA:RNA)
RNA: B4 RNA with C25G, C27A, G29U, C30U, A31C
DNA 1: CAATCTGAATTCCGGTCTCCC
DNA 2: TGGTGGCTACGACGGGATT
B21: GACAAUA (DNA:RNA)
RNA: B4 RNA with C25G, U26A, G29A, C30U
DNA 1: CAATCTGAATTCCGGTCTCCC
DNA 2: TGGTGGCTACGACGGGATT
B22: AUCGUUA (DNA:RNA)
RNA: B11 RNA with G26U, U27C, A30U, G31A
DNA 1: CAATCTGAATTCCGGTCTCCC
DNA 2: TGGTGGCTACGACGGGATT
B23: ACGCCGU (DNA:RNA)
RNA: B1 RNA with G25A, C31U
DNA 1: CAATCTGAATTCCGGTCTCCC
DNA 2: TGGTGGCTACGACGGGATT
B24: GGUUACC (DNA:RNA)
RNA: B11 RNA with A25G, G28U, U29A, A30C, G31C
DNA 1: CAATCTGAATTCCGGTCTCCC
DNA 2: TGGTGGCTACGACGGGATT
B25: AGACGGU (DNA:RNA)
RNA: B11 RNA with U27A, G28C, U29G, A30G, G31U
DNA 1: CAATCTGAATTCCGGTCTCCC
DNA 2: TGGTGGCTACGACGGGATT
B26: UGUGAGC (DNA:RNA)
RNA: B11 RNA with A25U, U29A, A30G, G31C
DNA 1: CAATCTGAATTCCGGTCTCCC
DNA 2: TGGTGGCTACGACGGGATT
B27: UUACUUC (DNA:RNA)
RNA: B1 RNA with G25U, C26U, G27A, C29U, G30U
DNA 1: CAATCTGAATTCCGGTCTCCC
DNA 2: TGGTGGCTACGACGGGATT
B28: CGUUACC (DNA:RNA)
RNA: B11 RNA with A25C, G28U, U29A, A30C, G31C
DNA 1: CAATCTGAATTCCGGTCTCCC
DNA 2: TGGTGGCTACGACGGGATT
B29: GGCCGCA (DNA:RNA)
RNA: B4 RNA with C25G, U26G, A28C
DNA 1: CAATCTGAATTCCGGTCTCCC
DNA 2: TGGTGGCTACGACGGGATT
B30: AGGUAUC (DNA:RNA)
RNA: B11 RNA with U27G, G28U, U29A, A30U, G31C
DNA 1: CAATCTGAATTCCGGTCTCCC
DNA 2: TGGTGGCTACGACGGGATT
B31: ACUCUCG (DNA:RNA)
RNA: B11 RNA with G26C, G28C, A30C
DNA 1: CAATCTGAATTCCGGTCTCCC
DNA 2: TGGTGGCTACGACGGGATT

biological target: T1, RBFOX1 RRM (Homo sapiens, UniProt Q9NWB1 109-208); test: EMSA; HiTS-Eq, 1 nM pool, 10 min; buffer printed only for the single-RNA assays: 10 mM Tris pH 7.5, 150 mM NaCl, 3.4 mM EDTA, 0.001% NP-40, 30 C; details: tags: His6 N-terminal (pET28a); label: 5' 32P
T1 sequence: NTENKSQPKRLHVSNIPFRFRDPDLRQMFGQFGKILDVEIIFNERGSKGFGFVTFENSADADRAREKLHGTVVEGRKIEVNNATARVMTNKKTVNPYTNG
Outline: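 A pool of RNA with 7 randomized nucleotides, 5′-radiolabelled and with DNA-annealed flanks, was equilibrated at 1 nM for 10 min in 50 µL with purified RbFox RRM, wild type or mutant, across increasing protein concentrations. Free RNA was separated by 8% native PAGE, excised, reverse-transcribed, barcoded by PCR and sequenced. Relative association constants were obtained from read-count changes of each RNA species versus the control reaction and normalised to the cognate motif.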

Row | Binder | binding signal
1 | B1 | 0.0127 KA relative to UGCAUGU
2 | B2 | 0.000423 KA relative to UGCAUGU
3 | B3 | 0.0155 KA relative to UGCAUGU
4 | B4 | 0.00573 KA relative to UGCAUGU
5 | B5 | 0.00207 KA relative to UGCAUGU
6 | B6 | 0.016 KA relative to UGCAUGU
7 | B7 | 0.0115 KA relative to UGCAUGU
8 | B8 | 0.0184 KA relative to UGCAUGU
9 | B9 | 0.0122 KA relative to UGCAUGU
10 | B10 | 0.00779 KA relative to UGCAUGU
11 | B11 | 0.0123 KA relative to UGCAUGU
12 | B12 | 0.00383 KA relative to UGCAUGU
13 | B13 | 0.00766 KA relative to UGCAUGU
14 | B14 | 0.0054 KA relative to UGCAUGU
15 | B15 | 0.00886 KA relative to UGCAUGU
16 | B16 | 0.0159 KA relative to UGCAUGU

Row | Binder | binding signal
17 | B17 | 0.01 KA relative to UGCAUGU
18 | B18 | 0.00562 KA relative to UGCAUGU
19 | B19 | 0.0146 KA relative to UGCAUGU
20 | B20 | 0.0044 KA relative to UGCAUGU
21 | B21 | 0.00231 KA relative to UGCAUGU
22 | B22 | 0.00325 KA relative to UGCAUGU
23 | B23 | 0.00555 KA relative to UGCAUGU
24 | B24 | 0.0089 KA relative to UGCAUGU
25 | B25 | 0.0131 KA relative to UGCAUGU
26 | B26 | 0.0247 KA relative to UGCAUGU
27 | B27 | 0.0109 KA relative to UGCAUGU
28 | B28 | 0.00632 KA relative to UGCAUGU
29 | B29 | 0.0132 KA relative to UGCAUGU
30 | B30 | 0.0104 KA relative to UGCAUGU
31 | B31 | 0.00571 KA relative to UGCAUGU
